Measurements published in paper PMC7694937.
No constants are given. Whether binding was seen depends on the method and setting. Binding seen in cells or lysates may run through a third protein. Some binding calls cover weakened binding; strength is not graded here. For some assays here: Tags and fused reporters may be left off the sequences shown.

Amino acid sequences for entries named in this document (tags omitted).
UniProt Q9ULZ3: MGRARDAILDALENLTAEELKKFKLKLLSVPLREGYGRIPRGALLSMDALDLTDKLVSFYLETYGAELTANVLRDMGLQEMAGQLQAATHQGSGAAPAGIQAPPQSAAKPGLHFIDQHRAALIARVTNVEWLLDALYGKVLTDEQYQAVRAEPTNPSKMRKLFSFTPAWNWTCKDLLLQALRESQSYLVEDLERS
UniProt P49023: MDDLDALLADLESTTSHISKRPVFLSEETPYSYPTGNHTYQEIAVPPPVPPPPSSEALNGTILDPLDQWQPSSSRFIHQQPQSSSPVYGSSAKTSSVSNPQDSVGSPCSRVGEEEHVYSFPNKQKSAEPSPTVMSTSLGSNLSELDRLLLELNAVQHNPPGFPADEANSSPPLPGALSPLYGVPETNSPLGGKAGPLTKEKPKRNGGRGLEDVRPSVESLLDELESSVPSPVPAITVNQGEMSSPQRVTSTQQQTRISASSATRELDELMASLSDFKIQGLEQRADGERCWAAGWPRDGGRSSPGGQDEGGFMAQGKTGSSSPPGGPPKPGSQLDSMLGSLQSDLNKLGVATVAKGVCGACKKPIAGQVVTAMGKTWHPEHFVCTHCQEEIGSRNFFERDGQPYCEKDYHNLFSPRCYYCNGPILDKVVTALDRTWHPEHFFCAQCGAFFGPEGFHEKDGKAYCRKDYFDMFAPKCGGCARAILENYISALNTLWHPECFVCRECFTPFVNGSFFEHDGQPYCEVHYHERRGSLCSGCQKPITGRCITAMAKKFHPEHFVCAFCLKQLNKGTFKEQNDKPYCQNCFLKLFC

Legend:
Test in all cases: co-IP; HEK293T cells co-transfected with Flag- and HA-tagged plasmids; lysis in 50 mM Tris-HCl pH 7.5, 300 mM NaCl, 1% Triton-X, 5 mM EDTA, 10% glycerol; IP with anti-Flag antibody and Protein-G Sepharose, immunoblot with anti-HA and anti-Flag; in some panels cells treated with DMSO or ATP (5 mM) for 2 h; Fig. 6d-g shown as pairs of IPs whose antibodies the legend does not name
[1] = molecular target: T1, Flag-USP13(625–863) (human) (UniProt Q92995)
T1 sequence: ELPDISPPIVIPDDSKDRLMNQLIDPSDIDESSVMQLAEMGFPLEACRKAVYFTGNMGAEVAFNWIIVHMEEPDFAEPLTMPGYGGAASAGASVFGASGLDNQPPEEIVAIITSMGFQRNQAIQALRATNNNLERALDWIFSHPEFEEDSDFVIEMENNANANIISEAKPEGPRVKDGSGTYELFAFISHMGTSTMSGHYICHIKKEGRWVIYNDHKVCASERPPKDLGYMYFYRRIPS

Flag-P2X7R(26–595) = molecular target: T2, Flag-P2X7R(26–595) (UniProt Q99572)
T2 sequence: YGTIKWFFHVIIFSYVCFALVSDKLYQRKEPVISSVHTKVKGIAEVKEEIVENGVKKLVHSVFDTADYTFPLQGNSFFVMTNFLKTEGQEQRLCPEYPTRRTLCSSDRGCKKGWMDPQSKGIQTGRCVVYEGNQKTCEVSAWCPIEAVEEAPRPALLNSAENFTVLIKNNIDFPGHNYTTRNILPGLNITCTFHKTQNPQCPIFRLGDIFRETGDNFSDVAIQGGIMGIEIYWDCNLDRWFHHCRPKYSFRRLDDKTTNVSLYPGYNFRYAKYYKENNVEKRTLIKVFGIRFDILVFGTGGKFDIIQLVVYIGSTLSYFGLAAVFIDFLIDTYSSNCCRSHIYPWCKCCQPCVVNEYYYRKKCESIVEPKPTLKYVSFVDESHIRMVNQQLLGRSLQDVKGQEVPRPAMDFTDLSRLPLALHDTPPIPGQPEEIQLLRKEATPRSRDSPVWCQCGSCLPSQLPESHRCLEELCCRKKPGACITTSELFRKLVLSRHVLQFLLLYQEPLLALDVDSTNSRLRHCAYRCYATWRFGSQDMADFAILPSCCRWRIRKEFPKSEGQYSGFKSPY

Flag-ASC (human) = Flag-ASC (human) (UniProt Q9ULZ3)
Flag-P2X7R(30–595) = molecular target: T3, Flag-P2X7R(30–595) (UniProt Q99572)
T3 sequence: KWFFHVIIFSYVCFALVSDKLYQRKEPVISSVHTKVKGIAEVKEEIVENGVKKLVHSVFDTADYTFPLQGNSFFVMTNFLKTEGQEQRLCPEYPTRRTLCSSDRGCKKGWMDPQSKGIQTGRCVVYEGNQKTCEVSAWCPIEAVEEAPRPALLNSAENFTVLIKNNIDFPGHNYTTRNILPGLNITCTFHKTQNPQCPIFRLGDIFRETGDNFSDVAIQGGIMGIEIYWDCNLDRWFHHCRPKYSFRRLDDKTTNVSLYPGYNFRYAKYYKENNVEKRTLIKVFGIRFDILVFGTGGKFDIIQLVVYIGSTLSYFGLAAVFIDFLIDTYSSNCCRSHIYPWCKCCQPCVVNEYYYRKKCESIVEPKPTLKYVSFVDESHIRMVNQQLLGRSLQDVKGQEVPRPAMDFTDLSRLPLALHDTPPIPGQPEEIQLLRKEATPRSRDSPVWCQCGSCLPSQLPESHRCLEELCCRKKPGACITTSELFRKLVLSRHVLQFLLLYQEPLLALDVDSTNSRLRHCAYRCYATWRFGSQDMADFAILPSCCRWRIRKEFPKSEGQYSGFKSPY

Flag-P2X7R(356–595) = molecular target: T4, Flag-P2X7R(356–595) (UniProt Q99572)
T4 sequence: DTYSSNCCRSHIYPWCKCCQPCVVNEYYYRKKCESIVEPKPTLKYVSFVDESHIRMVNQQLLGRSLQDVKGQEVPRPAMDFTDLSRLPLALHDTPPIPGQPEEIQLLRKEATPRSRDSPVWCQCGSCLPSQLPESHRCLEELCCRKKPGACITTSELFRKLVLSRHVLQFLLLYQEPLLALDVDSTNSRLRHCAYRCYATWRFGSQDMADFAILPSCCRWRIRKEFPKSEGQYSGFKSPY

In the case of HA-Paxillin (from UniProt P49023 1-591), the binding [1] is reported as “no binding”, the binding (Flag-P2X7R(26–595)) is reported as “binds” and the binding (Flag-ASC (human)) is reported as “no binding”. For the same substance, the binding (Flag-P2X7R(30–595)) was “binds” and the binding (Flag-P2X7R(356–595)) was “no binding”.
